According to PMC4336329 (PLoS ONE, 2015):
The campaign covered roughly 310,000 compounds. About 2,200 (0.71%) showed an effect of 50% or more. Effects have a minus sign here. This is one part of the list.

target: human ether-à-go-go-related gene (hERG) potassium channel (human, UniProt Q12809); assay: primary screen, population patch clamp on CHO cells stably expressing hERG
Sequence (Q12809 whole entry, looked up): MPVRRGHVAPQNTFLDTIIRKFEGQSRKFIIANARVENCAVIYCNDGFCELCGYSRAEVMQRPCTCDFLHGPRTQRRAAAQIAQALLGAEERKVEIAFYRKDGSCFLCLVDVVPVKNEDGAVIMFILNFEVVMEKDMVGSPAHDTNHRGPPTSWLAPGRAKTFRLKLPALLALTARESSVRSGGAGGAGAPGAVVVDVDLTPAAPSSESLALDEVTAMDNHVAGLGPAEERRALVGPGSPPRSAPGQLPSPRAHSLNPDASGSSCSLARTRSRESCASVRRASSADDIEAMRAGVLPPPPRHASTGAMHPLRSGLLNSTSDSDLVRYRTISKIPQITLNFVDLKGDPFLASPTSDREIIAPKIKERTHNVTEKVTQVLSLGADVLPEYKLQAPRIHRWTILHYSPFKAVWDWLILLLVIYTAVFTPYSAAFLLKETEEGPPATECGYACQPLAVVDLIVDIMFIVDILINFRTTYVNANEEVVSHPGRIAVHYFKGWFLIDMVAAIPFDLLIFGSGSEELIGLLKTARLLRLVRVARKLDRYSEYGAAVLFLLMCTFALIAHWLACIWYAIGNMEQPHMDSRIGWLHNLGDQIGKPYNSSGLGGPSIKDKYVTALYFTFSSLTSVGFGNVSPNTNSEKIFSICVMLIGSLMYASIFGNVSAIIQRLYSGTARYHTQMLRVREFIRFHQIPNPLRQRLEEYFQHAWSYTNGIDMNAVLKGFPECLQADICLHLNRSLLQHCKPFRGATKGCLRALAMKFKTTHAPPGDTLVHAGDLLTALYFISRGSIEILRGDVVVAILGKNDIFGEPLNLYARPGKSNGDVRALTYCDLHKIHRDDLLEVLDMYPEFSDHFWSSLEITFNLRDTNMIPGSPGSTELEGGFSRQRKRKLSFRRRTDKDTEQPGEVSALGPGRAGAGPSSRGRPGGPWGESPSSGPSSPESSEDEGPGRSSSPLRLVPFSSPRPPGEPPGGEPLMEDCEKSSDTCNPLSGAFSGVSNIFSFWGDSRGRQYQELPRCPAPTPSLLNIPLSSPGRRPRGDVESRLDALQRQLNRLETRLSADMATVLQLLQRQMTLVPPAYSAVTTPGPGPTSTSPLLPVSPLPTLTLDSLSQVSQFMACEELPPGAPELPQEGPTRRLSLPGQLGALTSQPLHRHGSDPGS

SMILES | hERG current change (%, negative = inhibition) at 1uM
Cc1ccccc1NC(=O)c1ccc(-c2ccc(Cl)cc2Cl)o1 | -3.94%
CC(C)n1cc(-c2ccc(Cl)cc2)cc(C#N)c1=O | 8.34%
CCN(CC)C(=O)c1cnn(-c2ccccc2)c1NC(=O)c1ccccc1F | 3.89%
CC(=O)N1CCC(N(CCN2CCOCC2)C(=S)Nc2cccc(C)c2)CC1 | 17%
C=CCN(c1ccccc1)S(=O)(=O)c1ccc2c(c1)N(C(C)=O)CCO2 | 6.08%
COc1cc(CNC(=O)c2nc(Cn3nc(C)c(Br)c3C)no2)cc(OC)c1 | -10.7%
Cc1ccc(C(=O)Nc2ccsc2C(=O)O)cc1 | 16%
CCOc1ccc2cc(S(=O)(=O)N3CCOCC3)ccc2c1 | 13.2%
COc1ccc(C(C)=O)cc1COC(=O)Cn1cnc2ccccc2c1=O | 10.8%
O=C(Cn1nnc2c(cnn2-c2ccccc2)c1=O)NCc1cccs1 | 11.7%
CCOC(=O)c1c(N)sc(-c2ccccc2)c1C | 7.41%
Cc1ccc(NC(=O)CNc2cc(S(=O)(=O)N3CCOCC3)ccc2NCC2CCCO2)cc1F (centres unmarked) | 15.1%
CCCC(=O)N1CC(=O)Nc2ccc(C)cc2C1c1ccc(F)cc1 (centres unmarked) | 2.3%
Cc1nn(-c2ccccc2)c(/N=C/c2ccc(O)cc2)c1-c1ccccc1 | 2.85%
C=CCn1cc(-c2ccccc2)cc(C#N)c1=O | 17.1%
Cc1nn(CC(=O)OCC(=O)Nc2c(C(C)C)cccc2C(C)C)c(C)c1[N+](=O)[O-] | 10.5%
Fc1cccc(-c2oncc2-c2nnnn2-c2ccc(Cl)cc2)c1 | 11%
Cc1cc(/C=N/NC(=O)c2ccncc2)c(C)n1-c1cccc(C(F)(F)F)c1 | 12.2%
COc1ccc(-c2noc(CSc3nc4ccccc4c(=O)n3-c3ccc(C)cc3)n2)cc1 | 11.7%
Cn1ccc2c([N+](=O)[O-])cccc2c1=O | 10.2%

SMILES | hERG current change (%, negative = inhibition) at 1uM
CCCCCSc1nc2c(c(=O)[nH]c(=O)n2C)n1C | 6.72%
O=C(NCc1ccc(Cl)cc1)C(=O)Nc1nccs1 | 15.4%
COc1ccc(C(=O)C2CCCN(C3CSCCSC3)C2)c(OC)c1 (centres unmarked) | -4.62%
CN1CCN(C(=O)c2cnn(-c3ccccc3)c2NC(=O)c2ccc(Br)cc2)CC1 | -88.5%
COc1ccc(C(=O)Nc2cc(C)c3c(=O)oc4ccccc4c3n2)cc1 | 16.8%
C/C(=N/NC(=O)c1sc(NS(=O)(=O)c2ccc(C)cc2)nc1C)c1sc(N)nc1C | 7.33%
Cc1ccc(CN2C(=O)CSC2c2cccnc2)cc1 (centres unmarked) | -1.18%
COc1ccc(/C=C(\C#N)C(=O)OC2CCOC2=O)cc1 (centres unmarked) | 8.35%
COc1ccc(OCC(=O)Nc2cc(C)c(Cl)cc2OC)c([N+](=O)[O-])c1 | 6.88%
CC(C)NC(=O)c1ccc2c(c1)N(CC(=O)Nc1ccccc1F)C(=O)C(C)(C)O2 | 9.75%
O=C(NCC(=O)N(CCc1ccccc1)C(C(=O)NC1CCCC1)c1cccnc1)c1ccco1 (centres unmarked) | -20.7%
C/C(=N\NC(=O)c1cccc(Cl)c1)C1C(=O)c2ccccc2C1=O | -5.36%
CSc1ccc(-c2ccco2)nn1 | 13.5%
O=C(NCCC(=O)N1CCc2ccccc21)c1ccco1 | 14.7%
Cc1nc(C)c(-c2csc(Nc3ccc(O)c(C(=O)O)c3)n2)s1 | 13.6%
Cc1nc2c(C)cccn2c1C(=O)N/N=C/c1ccccc1[N+](=O)[O-] | 13.3%
Cn1ccc(=NC=C(C#N)C#N)c2ccccc21 | 9.71%
O=C(OCC(=O)N1CCCC1=O)c1cc(S(=O)(=O)N2CCOCC2)ccc1F | 2.53%
CCOC(=O)C1CCN(S(=O)(=O)c2c(C(=O)N3CCCCC3)c(C)n(C)c2C)CC1 | -3.28%
CS(=O)(=O)c1cccc(-c2nnc(NC(=O)c3ccc4ncsc4c3)o2)c1 | 7.94%

SMILES | hERG current change (%, negative = inhibition) at 1uM
CN1C2C=C3C(C#N)=C(N)C(C#N)(C#N)C(c4ccc(Br)cc4)C3C1CC2 (centres unmarked) | 5.96%
Cc1cc(Cl)ccc1OCCCC(=O)NCC1CCCO1 (centres unmarked) | 9.98%
Cc1c(Br)ccc(NC(=O)COc2ccccc2C(N)=O)c1C | 14.8%
CC(C)N=C(NC#N)SCc1ccc(Br)cc1 | 15.7%
CCOC(=O)C1(CCOc2ccccc2)CCN(Cc2cnc(SC)nc2)CC1 | -28.4%
COC(=O)c1ccc(OC)c(OC2CCCC2)c1 | 11.6%
COc1cccc(CNC(=O)C2CCC(=O)N(CCc3cccc(F)c3)C2)c1 (centres unmarked) | 6.28%
N#C/C(=C\c1cc2c(cc1Br)OCO2)C(=O)NCC1CCCO1 (centres unmarked) | 1.78%
O=C1NC2(CCCCC2)Oc2ccccc21 | 6.35%
COC(=O)CCCCC(=O)OC | 14.3%
CCOc1ccc(CNC(=O)CCCn2ccc3cc(S(=O)(=O)N4CCCC4)ccc32)cc1 | -3.81%
CCc1nc2ccc(C(=O)N3CCN(c4ccc(Cl)cc4)CC3)cc2nc1CC | 6.96%
CCCC1CCC(c2ccc(/C(N)=N/O)cc2)CC1 (centres unmarked) | 12.1%
N#Cc1cccc(NC(=O)C2SC(=Nc3ccccc3)C(C(=O)N3CCOCC3)=C2N)c1 (centres unmarked) | 2.72%
O=C(CO)N/N=C/c1ccccc1F | 18.3%
COCCNC(=O)c1cc(-c2ccccc2)n(Cc2cc(C)no2)n1 | 9.99%
O=C(Nc1ccc(C2SCCS2)cc1)c1ccccc1 | 2.36%
COc1cc(S(=O)(=O)NC2CCCC2)ccc1Cl | 6.55%
COc1ccc2oc(C(=O)OCC(=O)N(C)CC(=O)Nc3ccc(C)cc3)c(C)c2c1 | -12.1%
